Reference: the supplement of paper PMC4723716
± gives the uncertainty stated by the source. In all, about 9,900 compounds were measured (“viability index relative to DMSO control”: median about 1, lowest 2% from about 0.85 on). The list shows a part of the results.

Each compound was assayed on Plasmodium falciparum NF54 stage V gametocytes (assay: viability index relative to DMSO control (fraction); higher = less gametocyte killing). Details: 2.5 µM, library set: Broad Institute DOS, incubation time: 72 h.
In short: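 Viability index is the count of red-stained particles in a well divided by the plate mean of solvent-only wells. Particles of 20–70 µm2 were counted in one imaged field per well after one to two hours with 3 µl of 2.5 µM MitoTracker Red CMXRos and 0.13% saponin. Before staining, P. falciparum NF54 stage V gametocytes in serum-free medium (0.75% gametocytemia, 1.25% hematocrit, 10 µl, 1,536-well plates) were kept with compound at 2.5 µM for 72 hr at 37°C under low oxygen.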

Compound	viability index
C[C@H](CO)N1C[C@H](C)[C@H](CN(C)C)Oc2ccc(NS(C)(=O)=O)cc2C1=O	0.935 ± 0.021
O=C(C[C@H]1C=C[C@H](NC(=O)Cc2ccccn2)[C@H](CO)O1)NCCc1ccncc1	0.875 ± 0.049
C/C=C/c1ccc([C@H]2[C@@H](CO)N3C(=O)CN(Cc4ccc(F)cc4)C[C@H]23)cc1	0.987 ± 0.057
COc1ccc(C#Cc2ccc3c(c2)[C@H]2[C@H](CCN2C(=O)C2CCOCC2)[C@H](CO)N3)cc1	1.01 ± 0.069
COc1ccc([C@@H]2C/C=C/C[C@@H](C)Oc3ccccc3C(=O)N(C)[C@@H](C(C)C)C(=O)N2)c(OC)c1.COc1ccc([C@@H]2C/C=C\C[C@@H](C)Oc3ccccc3C(=O)N(C)[C@@H](C(C)C)C(=O)N2)c(OC)c1	0.968 ± 0.016
N#C[C@@H]1[C@@H](c2ccc(C#Cc3ccccc3F)cc2)[C@@H](CO)N1C(=O)c1cccnc1	1.04 ± 0.018
COc1ccc(NC(=O)N2CCCCN3[C@H](CO)[C@H](c4ccc(-c5ccccc5F)cc4)[C@H]3C2)cc1	0.9607 ± 0.0031
O=C(C1CCC1)N1CC2(C1)[C@H](c1ccccc1)[C@H](CO)N2Cc1nccs1	0.983 ± 0.12
Cc1noc(C)c1S(=O)(=O)N(C)C[C@H]1OCCCC[C@@H](C)Oc2ccc(N(C)C)cc2C(=O)N([C@@H](C)CO)C[C@@H]1C	0.97 ± 0.04
CO[C@@H]1CC[C@@H]2CCN(C)C(=O)CCCN(C)C(=O)c3cc(C#N)ccc3OC[C@@H]1O2	1.01 ± 0.066
C/C=C/c1ccc2c(c1)[C@H]1[C@H](CCN1C(=O)C1CCCC1)[C@@H](CO)N2	0.984 ± 0.038
C/C=C/c1ccc([C@H]2[C@@H](CO)N[C@@H]2CN(CC)C(=O)CN2CCOCC2)cc1	0.954 ± 0.081
N#C[C@H]1[C@@H](c2ccccc2C2=CCCCC2)[C@H](CO)N1C(=O)CN1CCOCC1	1.14 ± 0.083
COCC(=O)NC[C@@H]1[C@H](c2ccccc2)[C@@H](CO)N1C(=O)c1ccccc1	1.03 ± 0.094
O=C(Nc1ccc2c(c1)[C@@H]1C[C@H](CC(=O)N3CCOCC3)O[C@H](CO)[C@@H]1O2)Nc1ccccc1F	1.1 ± 0.058
CN1C(=O)c2cc(NC(=O)c3cccc(Cl)c3)ccc2OC[C@@H]2O[C@H](CC(=O)NC3CCCCC3)CC[C@@H]21	0.9672 ± 0.0088
Cc1noc(C)c1NC(=O)N1C[C@H](O)COC[C@H]2O[C@@H](CC(=O)NCC3CC3)CC[C@@H]21	1.027 ± 0.0027
COc1ccc(NC(=O)N(C)C[C@H]2Oc3c(NC(=O)CCCCCC(=O)Nc4ccccc4N)cccc3C(=O)N([C@@H](C)CO)C[C@H]2C)cc1	0.645 ± 0.046
C/C=C/c1cnc2c(c1)C(=O)N([C@@H](C)CO)C[C@@H](C)[C@H](CN(C)C(=O)Nc1cccc(OC)c1)O2	1 ± 0.061
C[C@H](CO)N1C[C@H](C)[C@H](CN(C)S(C)(=O)=O)Oc2ccc(NC(=O)Nc3ccc(F)cc3)cc2CC1=O	0.907 ± 0.2
Cc1ccc(S(=O)(=O)Nc2ccc3c(c2)C(=O)N(C)[C@H]2CC[C@@H](CC(=O)NCCc4ccncc4)O[C@@H]2CO3)cc1	0.953 ± 0.054
C[C@H]1CN([C@@H](C)CO)C(=O)CCCn2nncc2CO[C@@H]1CN(C)C(=O)c1cc(-c2ccccc2)on1	1.06 ± 0.047
CC1C=NC(S(=O)(=O)N2CC[C@@H]3[C@H](CO)N(C)c4ccc(C#Cc5cccnc5)cc4[C@@H]32)=N1 (stereo not given in full)	1.08 ± 0.047

Compound	viability index
CCCN1C[C@@H](C)[C@@H](OC)CN(C)C(=O)c2ccc(NS(=O)(=O)c3cn(C)cn3)cc2OC[C@H]1C	1.03 ± 0.12
CCS(=O)(=O)N1C[C@@]2(C1)CN(Cc1cccc(Cl)c1)[C@@H](CO)c1c2c2ccc(OC)cc2n1C	1 ± 0.041
COc1ccc(NC(=O)N(C)C[C@H]2OCc3ccccc3-c3ccccc3C(=O)N([C@@H](C)CO)C[C@H]2C)c(OC)c1	0.978 ± 0.057
C[C@H](CO)N1C[C@H](C)[C@H](CN(C)C(=O)Nc2ccc(-c3cccs3)cc2)OCc2cnnn2CCCC1=O	0.957 ± 0.1
O=C(C[C@H]1CC[C@H]2[C@@H](COC[C@H](O)CN2C(=O)c2ccccc2F)O1)NCc1ccc(Cl)c(Cl)c1	1.116 ± 0.0021
C[C@@H]1CN([C@H](C)CO)C(=O)c2cc(-c3ccc(C#N)cc3)cnc2O[C@H]1CN(C)Cc1cccnc1	1.07 ± 0.037
CCCNC(=O)N1[C@H](C#N)[C@@H](c2ccccc2-c2ccc(OC)cc2)[C@@H]1CO	1.04 ± 0.11
CN1C(=O)c2cc(NC(=O)Cc3cccs3)ccc2OC[C@@H]2O[C@H](CC(=O)NCCc3ccncc3)CC[C@@H]21	1.13 ± 0.15
CCCC(=O)N1C[C@@]2(C1)CN(Cc1cccnc1)[C@@H](CO)c1[nH]c3cc(OC)ccc3c21	0.978 ± 0.11
C[C@H]1CN([C@@H](C)CO)C(=O)c2cc(NC(=O)NC3CCCCC3)ccc2O[C@H]1CN(C)S(C)(=O)=O	1.02 ± 0.09
COc1ccc2c3c([nH]c2c1)[C@@H](CO)N(Cc1ccccc1OC)C[C@]31CN(C1)C(C)=O	1.058 ± 0.006
O=C(NC[C@H]1[C@H](c2ccccc2)[C@@H](CO)N1C(=O)C1CCC1)NC1CCCC1	0.97 ± 0.012
O=C(c1ccncc1)N1C[C@H]2[C@@H](c3ccccc31)[C@@H](CO)N2C(=O)CN1CCOCC1	1.01 ± 0.21
Cc1nn(C)cc1NC(=O)C[C@H]1CC[C@@H]2[C@H](COc3ccc(NC(=O)C4CCOCC4)cc3C(=O)N2C)O1	1.02 ± 0.069
C[C@H]1CN([C@@H](C)CO)C(=O)c2ccccc2-c2ccccc2CO[C@@H]1CN(C)S(=O)(=O)c1cccc(C#N)c1	1 ± 0.081
O=C(Nc1ccc2c(c1)[C@@H]1C[C@H](CC(=O)N3CCCCC3)O[C@@H](CO)[C@@H]1O2)NC1CCCCC1	0.9547 ± 0.008
O=C(C1CC1)N1CC[C@@H]2[C@H]1c1cc(Br)ccc1N[C@@H]2CO	1.08 ± 0.031
O=C(Cc1ccccc1)N1C[C@@H]2[C@H](c3ccccc31)[C@H](CO)N2S(=O)(=O)c1ccccc1	1.03 ± 0.031
C[C@H](CO)N1C[C@H](C)[C@H](CN(C)S(=O)(=O)c2ccccc2C#N)OCc2cnnn2CCCC1=O	1.08 ± 0.066
Cc1noc(C)c1NC(=O)N1C[C@H](O)COC[C@H]2O[C@H](CC(=O)NCC3CC3)CC[C@@H]21	0.995 ± 0.042
C[C@H](NC(=O)C[C@H]1CC[C@H]2[C@H](COc3ccc(NC(=O)C4CCOCC4)cc3C(=O)N2C)O1)c1ccccc1	1.14 ± 0.052
C[C@H]1CN([C@@H](C)CO)S(=O)(=O)c2ccc(C#CCC3CCCC3)cc2O[C@@H]1CN(C)C(=O)c1cnccn1	0.99 ± 0.046
